Among all 340,000 compounds or so, about 6,900 (2%) were called active. Cut-off read from the data, not from the text of the source: active = inhibition above about 30%; inactive = below that, where a call was filed. The entries are a selection whose mix differs from that of the whole data set. Where no call is shown, the source filed none.

UniProt P14416, sequence (P14416 whole entry, looked up): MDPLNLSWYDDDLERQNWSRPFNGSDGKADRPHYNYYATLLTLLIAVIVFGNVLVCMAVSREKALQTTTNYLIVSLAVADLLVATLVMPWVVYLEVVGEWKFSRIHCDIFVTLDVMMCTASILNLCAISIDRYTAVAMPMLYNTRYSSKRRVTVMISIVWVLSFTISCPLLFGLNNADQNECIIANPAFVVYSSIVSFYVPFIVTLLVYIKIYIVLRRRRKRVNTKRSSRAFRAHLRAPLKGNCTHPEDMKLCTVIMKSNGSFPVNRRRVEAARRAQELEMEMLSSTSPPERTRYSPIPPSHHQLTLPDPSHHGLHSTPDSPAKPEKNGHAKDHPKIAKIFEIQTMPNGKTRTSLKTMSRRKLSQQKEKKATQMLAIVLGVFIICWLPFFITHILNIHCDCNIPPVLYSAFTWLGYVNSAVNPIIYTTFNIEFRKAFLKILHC

This assay addresses D(2) dopamine receptor (Homo sapiens) (UniProt P14416). The assay can be described thus: HTS Assay for Allosteric Antagonists of the Human D2 Dopamine Receptor: Primary Screen for Antagonists. Note: 0% is about no effect. The note with it: HEK293 TREx D2 cells, calcium flux, dopamine EC80; at 10 µM; stronger effect = higher value. Summed up:
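Cells plated overnight at 30 C with tetracycline; no-wash calcium dye, 30–90 min RT; 10 s baseline; compound pinned; 180 s read; EC80 dopamine added; another 180 s read.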
A general note: Calcium assays in cells follow changes in intracellular calcium, usually with a dye or a luminescent sensor.
One may read the inhibition as the drop in the measured response relative to a control, in per cent. On to `COc1ccc(CCN2CCC(CNC(=O)c3cnn(-c4cccc(Cl)c4)c3C3CCN(C(=O)OC(C)(C)C)CC3)CC2)cc1`, for which the inhibition is 15.1%. To `COc1ccc(N2CCN(C(=O)C3CCN(c4nc5ccc(C)cc5[nH]4)CC3)CC2)cc1` belongs 2.48%. Take `CCOC(=O)c1ccc(NC(=O)CCc2nc3cccnc3n2Cc2cccs2)cc1`: the inhibition came to 17.5%. As to `Cc1cccc(NC(=O)/C(C#N)=C/c2ccc(C)o2)c1`, the inhibition is -17%.

As to `Cc1ccc(S(=O)(=O)c2cn(CC(=O)Nc3ccc(Cl)cc3)c3ccc(F)cc3c2=O)cc1C`, the inhibition was -2.65%. With `O=C(NCCCN1CCCCC1)c1ccc2c(c1)NC(=O)C(N1CCCCC1)S2` (stereo not given), the inhibition was active: 46.9%. In the case of `CCOC(=O)c1c(NC(=O)c2cc(CC)on2)sc(C(C)=O)c1C`, the inhibition was -4.05%. The value for `COc1cc(C2CC(=O)Nc3c2c(=O)n(C)c2ncnn32)cc(OC)c1OC` (stereo not given) was 17.5%; that for `COC(=O)c1c(CSc2ccc(Cl)cc2)noc1C(=O)NCc1ccco1` was active: 37.6%. On to `CCC(=O)Nc1cccc(-c2nc3cc(C)ccc3o2)c1`, for which the inhibition came to 4.05%.

Take `O=C(O)/C=C/C(=O)N1CCN(S(=O)(=O)c2cccc(C(F)(F)F)c2)CC1`: the inhibition is active: 31.1%. Consider `CC(=O)c1ccc(N2CCN(c3ccc4cc(S(=O)(=O)N5CCC(C)CC5)ccc4n3)CC2)cc1`, for which the inhibition was 5.62%.

In the case of `Cc1cccc2sc(N(CCN(C)C)C(=O)/C=C/c3cccs3)nc12`, the inhibition was active: 31.6%. As to `CC(=O)Nc1nonc1-c1nnc(SCc2ccccc2)n1C`, the inhibition was -5.14%. Regarding `COc1ccc(-n2nc(C(=O)Nc3cc(C)ccn3)c3c4ccccc4n(C)c3c2=O)cc1Cl`, the inhibition stood at 26.5%.

For `CCc1ccc(NC(=O)Cn2c(=O)c3cc(Cl)ccc3n3nncc23)cc1`, the inhibition was 3.3%. As for `CCOc1ccc(-c2cc(C(=O)NCCc3ccc(OC)c(OC)c3)[nH]n2)cc1`, the inhibition was determined as 3.03%. The value for `O=c1c2oc3ccccc3c2n(Cc2cccc(F)c2)c(=O)n1Cc1ccc2c(c1)OCO2` was 2.21%; that for `CCC1(c2ccc(F)cc2)NC(=O)N(CC(=O)c2ccc[nH]2)C1=O` (stereo not given) was active: 30.3%; that for `C=Cc1ccc(Cn2c(SCC(=O)N3CCN(c4ccc(F)cc4)CC3)nc3ccccc32)cc1` was -0.68%. The value for `COC(=O)c1cccc(CN2C(=O)SC(Nc3ccc(C)cc3)C2=O)c1` (stereo not given) was -4.89%; that for `O=C(NCc1ccc(F)cc1)c1ccc2oc(=O)n(Cc3ccccc3)c2c1` was -11.7%. On to `COc1ccccc1NC(=O)C(=O)NCC(c1cccnc1)N1CCc2ccccc2C1` (stereo not given), for which the inhibition worked out at 8.86%.

As for `COc1cccc(CNC(=O)Cn2c(=O)oc3cc(S(=O)(=O)N4CCCCCC4)ccc32)c1`, the inhibition is -3.19%. With `O=C(CN1CCN(C/C=C/c2ccccc2)CC1)NC(=O)NC1CCCCC1`, the inhibition was active: 70.6%. `COC(=O)c1ccc(NC(=O)CCc2c(C)nn(-c3ccc(N4CCCCC4)nn3)c2C)cc1`: the inhibition is -4.38%. On to `O=C(NCc1ccc2c(c1)CCN2C(=O)c1ccncc1)c1ccccc1F`, for which the inhibition was -27.3%. Regarding `COc1cccc(OCCn2c(-c3ccc(Br)cc3)nc3ccccc3c2=O)c1`, the inhibition amounted to 17.4%.

Consider `COC(=O)c1ccccc1NC(=O)CCS(=O)(=O)c1nc(-c2ccc3c(c2)OCO3)cc(C(F)(F)F)n1`, for which the inhibition is -14.5%. Regarding `CCOCCCn1c(=N)c(S(=O)(=O)c2ccc(Cl)cc2)cc2c(=O)n3cccc(C)c3nc21`, the inhibition came out at 0.789%. To `COc1ccccc1CNc1ncnc2c1nnn2C` belongs 18.1%; to `COC(=O)c1c(-c2cccs2)csc1NC(=O)c1ccc(C(C)C)cc1`, 7.38%; to `O=C(COc1ccccc1)OCc1cc(=O)n2nc(-c3cccs3)sc2n1`, -1.57%.

With `Cc1c(Cl)cccc1NC(=O)c1cc2nc(-c3ccc4c(c3)OCO4)cc(C(F)(F)F)n2n1`, the inhibition is -0.274%. To `Cc1ccccc1NC(=O)c1ccc(N(Cc2ccccc2)S(C)(=O)=O)cc1` belongs -10.6%. As for `COc1ccc(CNC(=O)c2cnc3ccc(C)cn3c2=O)cc1`, the inhibition is 13.3%.

On to `CCc1nn(CC(=O)NC(C)CC)c(=O)c2cc3occc3n12` (stereo not given), for which the inhibition is 5%. To `CC(C)(C)OC(=O)N1CCC(c2c(C(=O)Nc3ccc4c(c3)OCO4)cnn2-c2ccccc2)CC1` belongs -13.7%. The value for `O=C(Nc1cccc(-c2nc3ccccc3o2)c1)c1cccc2c(Cl)cccc12` was -11.4%. On to `Cc1ccc(NC(=O)CCS(=O)(=O)c2ccc3c(c2)oc(=O)n3C)c(Br)c1`, for which the inhibition is 5.66%. With `Cc1ccc2nc(COc3cccc(NC(=O)COc4ccc(F)cc4)c3)cc(=O)n2c1`, the inhibition is -9.53%. On to `Cc1c(Cl)cccc1Nc1nn2c(=O)c3ccc(C(=O)N(C)Cc4ccccc4)cc3nc2s1`, for which the inhibition is -2.2%. As to `CCOc1cc(S(=O)(=O)NCCc2c(C)[nH]c3ccc(C)cc23)ccc1Br`, the inhibition was -5.83%.

`Cc1cc(C)cc(-n2c(SCC(=O)NC3CCCCC3)nc3c([nH]c4ccccc43)c2=O)c1`: the inhibition was -3.93%. As for `CC(=O)c1cccc(NS(=O)(=O)c2cccc(S(=O)(=O)c3ccc(Br)cc3)c2)c1`, the inhibition was -15%. The value for `COc1ccc(N2CCN(C(=O)CSCc3ccc(C)cc3)CC2)cc1` was -10.3%; that for `O=c1[nH]c(SCc2c(F)cccc2Cl)nc2c1CCCC2` was 0.728%.

On to `CCN(C(=O)c1cc2c(s1)-c1ccccc1OC2)c1cccc(C(F)(F)F)c1`, for which the inhibition stood at 1.09%.

`COc1ccc(NC(=O)Nc2nnc(N(CC(C)C)CC(C)C)s2)c(OC)c1`: the inhibition was -8.38%. As for `COc1ccc(NC(=O)c2cc(C3CC3)nc3c2c(C)nn3-c2ccccc2)cc1OC`, the inhibition is 28%. On to `Cc1ccc(NC(=O)c2c(NC(=O)C(F)(F)F)sc3c2CCCCC3)cc1`, for which the inhibition is -2.52%. The value for `O=C1N[C@@H](Cc2cnc[nH]2)C(=O)N2CCC[C@@H]12` was active: 45.2%. Turning to `Cc1ccc(CNC(=O)Cn2cccc2C(=O)c2ccccc2C)cc1`, the inhibition is 0.531%. To `COc1ccc(Cl)cc1NC(=O)CCn1c(=O)oc2ccccc21` belongs 24.7%. Consider `Cc1ccccc1NC(=O)CSc1ccc(-c2cccs2)nn1`, for which the inhibition is -10.1%.

As for `O=c1[nH]c(SCc2ccc([N+](=O)[O-])cc2)nc2c1CCCC2`, the inhibition is 20.9%.

For `Cc1ccc(NC(=O)c2ccc(OCc3c(C)noc3C)cc2)nc1`, the inhibition is active: 34.1%.

As for `CCc1ccc(NC(=O)C(=O)NCCc2sc3nc(-c4ccc(OC)cc4)nn3c2C)cc1`, the inhibition was -8.88%. As to `Cc1ccc(CNc2nc3ccc(C)cc3n3nnnc23)cc1`, the inhibition turned out to be 2.56%. In the case of `Cc1ccc(NS(=O)(=O)c2ccc(-c3cc(C)no3)cc2)c(Br)c1`, the inhibition is -11%. To `Cc1ccc(CCNC(=O)c2c(C)nn(-c3ccc(F)cc3)c2-n2cccc2)cc1` belongs -5.7%; to `CC1=C(C(=O)Nc2ccccc2)C(c2ccc(O)cc2)n2nc(SCc3ccccc3)nc2N1` (stereo not given), 22.5%; to `CCOc1ccccc1NC(=O)N1CCC2(CC1)Oc1ccccc1C(=O)N2Cc1ccccc1F`, -0.361%. To `O=C(Cn1ncc2c3ccccc3n(Cc3ccc(F)cc3)c2c1=O)NCCCN1CCCCC1` belongs -2.85%; to `N#Cc1c[nH]n2c(NC3CCCC3)c(-c3ccc(Cl)cc3)nc12`, 5.01%. Turning to `CC(C)N(Cc1ccccc1)C(=O)CN1C(=O)CSc2ccc(S(=O)(=O)N3CCCC3)cc21`, the inhibition was -2.71%. With `Cc1c(C(=O)N2CCC(C)CC2)c(S(=O)(=O)Nc2ccc(OC(F)(F)F)cc2)c(C)n1C`, the inhibition is -9.03%. On to `Cc1ccc(NC(=O)CC2S/C(=N/N=C/c3ccco3)NC2=O)cc1Cl` (stereo not given), for which the inhibition was active: 32.7%. The value for `CCn1cc(C(=O)N2CCN(c3ccc(OC)cc3)CC2)c(=O)c2cc(S(=O)(=O)N3CCOCC3)ccc21` was 19.5%; that for `COc1ccc2[nH]cc(CCN=C(NC(=O)c3ccccc3C)Nc3nc(C)cc(C)n3)c2c1` was 5.51%; that for `COc1ccc(OCC(=O)Nc2ccc(-c3nc4cc(C)c(C)cc4o3)cc2)cc1` was 4.2%. The value for `COc1cc(OC)c(N(C)C(=O)c2sc3nc4n(c(=O)c3c2C)CCCCC4)cc1Cl` was 18.7%; that for `Cc1cc(Nc2cc(F)ccc2C)nc(-n2nc(C)cc2C)n1` was -0.12%; that for `Cc1cc2c(cc3c(SCc4ccccc4Cl)nnc(C)n32)o1` was 4.43%. Turning to `CCN(C(=O)C1CCCN(c2ncnc3c2nc2n3CCCCC2)C1)c1cccc(Cl)c1` (stereo not given), the inhibition is -5.28%. On to `Cc1cc(NC(=O)c2ccc(NC(=O)CCS(=O)(=O)c3cccs3)cc2)ccc1Br`, for which the inhibition was 6.31%. As to `Cc1c(CCNC(=O)C(C)(C)C)sc2nc(-c3ccc(F)cc3)nn12`, the inhibition was -21.1%. Take `CC(=O)c1ccc(NC(=O)COCc2cc(-c3ccc(F)cc3)on2)cc1`: the inhibition was -2.85%. `COc1ccccc1NC(=O)C1=C(C)Nc2nc(SCc3ccccc3)nn2C1c1ccncc1` (stereo not given): the inhibition came to 11.3%. In the case of `O=C(Nc1ccc(C(F)(F)F)cc1)C(Cc1ccccc1)n1cccc1` (stereo not given), the inhibition is -8.66%.

Consider `COc1ccc(C2=NS(=O)(=O)N(C)C(C(=O)Nc3ccc4c(c3)OCO4)=C2)cc1`, for which the inhibition is active: 64.2%. To `CC(=O)Nc1cccc(C(=O)NCc2ccc3c(c2)CCN3C(=O)c2ccc(F)cc2)c1` belongs -13.2%; to `CCn1nnc2cc(C(=O)Nc3ccc(Br)cc3F)ccc21`, 2.83%; to `Cn1ncc2c(NCc3ccc(F)cc3)ncnc21`, -3.09%.

As for `CCOC(=O)c1c(S(=O)(=O)N2CCC(C(=O)N3CCN(c4ccc(F)cc4)CC3)CC2)c(C)n(C)c1C`, the inhibition amounted to 8.12%. The value for `Nc1nc(Cl)nc2c1ncn2[C@@H]1O[C@H](CO)[C@@H](O)[C@H]1O` was active: 37.4%; that for `CCOc1ccccc1N1CCN(Cc2cnc(-c3ccccc3)[nH]2)CC1` was active: 77.8%. Take `O=c1[nH]c2ccccc2n1CCCN1CCN(C(c2ccccc2)c2ccccc2)CC1`: the inhibition was active: 83.8%. On to `O=C1N(Cc2ccccc2)c2ccccc2C1(O)c1c[nH]c2ccccc12` (stereo not given), for which the inhibition came to 15.9%. With `Cc1ccc(NC(=O)C2CCCN2S(=O)(=O)c2ccc3c(c2)n(C)c(=O)c(=O)n3C)cc1C` (stereo not given), the inhibition worked out at 17.1%. Turning to `Cn1c(=O)c2c(SCC(=O)N3CCc4ccccc43)nc(-c3ccc(Cl)cc3)nc2n(C)c1=O`, the inhibition was -19.2%. The value for `COc1ccc(C2c3c(n(C)c4ccccc34)C(=O)N2CC(=O)Nc2ccc(F)cc2)cc1` (stereo not given) was 3.42%; that for `COCCNC(=O)C1=CC(c2ccc3c(c2)OCO3)=NS(=O)(=O)N1C` was 6.28%; that for `CC(C)c1ccc(CNc2n[nH]c(-c3ccco3)n2)cc1` was 0.99%. To `CCC(=O)N1CCc2cc(OC)c(OC)cc2C1COc1ccc2c(C)cc(=O)oc2c1` (stereo not given) belongs -6.31%.

(Values after PubChem BioAssay AID485344 (National Center for Advancing Translational Sciences (NCATS), 2010).)
